{"source": "the RNAGym collection of RNA variant scans (doi:10.1101/gad.245936.114)", "parents": {"B1": {"name": "tRNA (parent)", "chain": "CUCUCGGUAGCCAAGUUGGUUUAAGGCGCAAGACUUUAAUUUAUCACUACGAAAUCUUGAGAUCGGGCGUUCGACUCGCCCCCGGGAGAUUUUUUCCUCGAGCAA"}}, "note": "This sample is rich in variants without activity."}
{"variants_of": "B1", "assay": "nonsense suppression (GFP-seq) (ratio to wild type); higher = more function; SUP4oc tRNA, yeast GFP reporter sort-seq", "outline": "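Yeast carrying genome-integrated SUP4oc tRNA variants from a library with ~3% random mutations were grown in raffinose/galactose medium with 80 mg/L adenine. Each strain also carried a galactose-driven GFP ochre reporter and RFP. Cells were sorted into GFP/RFP bins, and each bin was Illumina-sequenced (phred ≥30). Nonsense suppression (GFPSEQ) is the bin median GFP/RFP, weighted by each variant's estimated cell share per bin, relative to wild-type SUP4oc; variants needed ≥100 reads and ≥30 cells.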"}
{"variant": "A9G G32A U58G G85A", "nonsense suppression": "≤ 0.026"}
{"variant": "A9G G32C", "nonsense suppression": "≤ 0.026"}
{"variant": "A9G G32U", "nonsense suppression": "≤ 0.026"}
{"variant": "A9G G59A U76A", "nonsense suppression": "≤ 0.026"}
{"variant": "A9G G59C C83U", "nonsense suppression": "≤ 0.026"}
{"variant": "A9G G59U C83U G86C", "nonsense suppression": "≤ 0.026"}
{"variant": "A9G G61A G85A", "nonsense suppression": 0.303}
{"variant": "A9G G61C", "nonsense suppression": 1.06}
{"variant": "A9G G65A", "nonsense suppression": "≤ 0.026"}
{"variant": "A9G G65A C81G A89C", "nonsense suppression": "≤ 0.026"}
{"variant": "A9G G65A C81U", "nonsense suppression": "≤ 0.026"}
{"variant": "A9G G67A", "nonsense suppression": "≤ 0.026"}
{"variant": "A9G G69U G73C", "nonsense suppression": "≤ 0.026"}
{"variant": "A9G G78U", "nonsense suppression": "≤ 0.026"}
{"variant": "A9G G84U", "nonsense suppression": 0.0539}
{"variant": "A9G U16A C34G C77G", "nonsense suppression": "≤ 0.026"}
{"variant": "A9G U17A", "nonsense suppression": 0.92}
{"variant": "A9G U17A A33G U70A C77G", "nonsense suppression": "≤ 0.026"}
{"variant": "A9G U17C G78U", "nonsense suppression": "≤ 0.026"}
{"variant": "A9G U17G G78C", "nonsense suppression": "≤ 0.026"}
{"variant": "A9G U20A C34G C56A U58G G65C", "nonsense suppression": "≤ 0.026"}
{"variant": "A9G U20C C64G G66U C68A", "nonsense suppression": "≤ 0.026"}
{"variant": "A9G U21A", "nonsense suppression": 0.36}
{"variant": "A9G U22A U35G", "nonsense suppression": "≤ 0.026"}
{"variant": "A9G U22C", "nonsense suppression": 0.323}
{"variant": "A9G U22G C34G C72U", "nonsense suppression": "≤ 0.026"}
{"variant": "A9G U22G U63A C81A", "nonsense suppression": "≤ 0.026"}
{"variant": "A9G U35A A60U G66A C83G G85U", "nonsense suppression": "≤ 0.026"}
{"variant": "A9G U35A C80G", "nonsense suppression": "≤ 0.026"}
{"variant": "A9G U35G G88U", "nonsense suppression": "≤ 0.026"}
{"variant": "A9G U57A U58C", "nonsense suppression": "≤ 0.026"}
{"variant": "A9G U57G", "nonsense suppression": "≤ 0.026"}
{"variant": "A9G U57G G59C G67A U70C G86A", "nonsense suppression": "≤ 0.026"}
{"variant": "A9G U57G U58A C64G C77G", "nonsense suppression": "≤ 0.026"}
{"variant": "A9G U58A A89C", "nonsense suppression": "≤ 0.026"}
{"variant": "A9G U58C C64G U76A", "nonsense suppression": "≤ 0.026"}
{"variant": "A9G U63C G69A", "nonsense suppression": "≤ 0.026"}
{"variant": "A9G U70G U76A C83G G86U", "nonsense suppression": "≤ 0.026"}
{"variant": "A9G U71A A74C", "nonsense suppression": "≤ 0.026"}
{"variant": "A9G U71C G78A", "nonsense suppression": "≤ 0.026"}
{"variant": "A9G U71G", "nonsense suppression": "≤ 0.026"}
{"variant": "A9U A13C U17A U35A C79A", "nonsense suppression": "≤ 0.026"}
{"variant": "A9U A13G A54U C83U", "nonsense suppression": "≤ 0.026"}
{"variant": "A9U A13G C81G", "nonsense suppression": "≤ 0.026"}
{"variant": "A9U A13G U22G A31C U63C C68U A74U G78U C79A C80A", "nonsense suppression": "≤ 0.026"}
{"variant": "A9U A13U G86A", "nonsense suppression": "≤ 0.026"}
{"variant": "A9U A14G G61A U63C G86C", "nonsense suppression": "≤ 0.026"}
{"variant": "A9U A14U", "nonsense suppression": 0.0588}
{"variant": "A9U A23U A30U", "nonsense suppression": "≤ 0.026"}
{"variant": "A9U A23U A33U G67A G84C", "nonsense suppression": "≤ 0.026"}
{"variant": "A9U A23U C82G", "nonsense suppression": "≤ 0.026"}
{"variant": "A9U A23U G59U G67U G78U C83A", "nonsense suppression": "≤ 0.026"}
{"variant": "A9U A24C G59U C64A", "nonsense suppression": "≤ 0.026"}
{"variant": "A9U A24C U58G A62C G88A", "nonsense suppression": "≤ 0.026"}
{"variant": "A9U A24G", "nonsense suppression": 0.0422}
{"variant": "A9U A24U A62G", "nonsense suppression": "≤ 0.026"}
{"variant": "A9U A24U C56G G61U", "nonsense suppression": "≤ 0.026"}
{"variant": "A9U A24U G85A", "nonsense suppression": "≤ 0.026"}
{"variant": "A9U A30C", "nonsense suppression": "≤ 0.026"}
{"variant": "A9U A30C A87U", "nonsense suppression": "≤ 0.026"}
{"variant": "A9U A30G C34A", "nonsense suppression": "≤ 0.026"}
{"variant": "A9U A30G C34G", "nonsense suppression": "≤ 0.026"}
{"variant": "A9U A31G", "nonsense suppression": 0.193}
{"variant": "A9U A31U G69U G78U G86U", "nonsense suppression": "≤ 0.026"}
{"variant": "A9U A33G", "nonsense suppression": 0.0334}
{"variant": "A9U A33U C82A", "nonsense suppression": "≤ 0.026"}
{"variant": "A9U A33U G67U U70A", "nonsense suppression": "≤ 0.026"}
{"variant": "A9U A33U G78A", "nonsense suppression": "≤ 0.026"}
{"variant": "A9U A54C", "nonsense suppression": 0.0503}
{"variant": "A9U A54G", "nonsense suppression": 0.0306}
{"variant": "A9U A60C", "nonsense suppression": "≤ 0.026"}
{"variant": "A9U A60U U71A", "nonsense suppression": "≤ 0.026"}
{"variant": "A9U A62C", "nonsense suppression": "≤ 0.026"}
{"variant": "A9U A62C A87G G88U", "nonsense suppression": "≤ 0.026"}
{"variant": "A9U A62U C79A G88U", "nonsense suppression": "≤ 0.026"}
{"variant": "A9U A74G", "nonsense suppression": 0.0977}
{"variant": "A9U A74G C83G", "nonsense suppression": "≤ 0.026"}
{"variant": "A9U A89C", "nonsense suppression": "≤ 0.026"}
{"variant": "A9U C11G G18U C75A C83A", "nonsense suppression": "≤ 0.026"}
{"variant": "A9U C11G U17G G67U U70A", "nonsense suppression": "≤ 0.026"}
{"variant": "A9U C11G U58A G69C", "nonsense suppression": "≤ 0.026"}
{"variant": "A9U C11U A33G", "nonsense suppression": "≤ 0.026"}
{"variant": "A9U C12A A14G A31C", "nonsense suppression": "≤ 0.026"}
{"variant": "A9U C12A G19C", "nonsense suppression": "≤ 0.026"}
